# Results taken from the supplement of paper PMC8728848.
# This is one part of the list.
# Tests used:
# Experiment in all cases: glycan array binding signal (z-score within array); higher = stronger binding
# Conditions in all cases: glycan notation: IUPAC condensed, linker removed
# [1] = target: Gal(b1-4)GlcNAc(b1-3)Gal(b1-4)GlcNAc(b1-2)[Gal(b1-4)GlcNAc(b1-3)Gal(b1-4)GlcNAc(b1-6)]Man(a1-6)[Gal(b1-4)GlcNAc(b1-3)Gal(b1-4)GlcNAc(b1-2)Man(a1-3)]Man(b1-4)GlcNAc(b1-4)GlcNAc
# Method in brief: (§1)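 Negative Z-scores can be read as non-binding. The Z-score is calculated within each array and then averaged across arrays of one protein sequence at different concentrations or buffers and across linkers. Arrays, 3228 in all, were curated from the Consortium for Functional Glycomics database and kept only where the protein sequence was available.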
# [2] = target: Gal(b1-4)GlcNAc(b1-3)Gal(b1-4)GlcNAc(b1-2)[Gal(b1-4)GlcNAc(b1-3)Gal(b1-4)GlcNAc(b1-6)]Man(a1-6)[Gal(b1-4)GlcNAc(b1-3)Gal(b1-4)GlcNAc(b1-2)Man(a1-3)]Man(b1-4)GlcNAc(b1-4)[Fuc(a1-6)]GlcNAc
# Method in brief: as §1
# [3] = target: Gal(b1-4)GlcNAc(b1-3)Gal(b1-4)GlcNAc(b1-3)Gal(b1-4)GlcNAc
# Method in brief: as §1
# [4] = target: Gal(b1-4)GlcNAc(b1-3)Gal(b1-4)GlcNAc(b1-3)Gal(b1-4)GlcNAc(b1-2)Man(a1-3)[Gal(b1-4)GlcNAc(b1-3)Gal(b1-4)GlcNAc(b1-3)Gal(b1-4)GlcNAc(b1-2)Man(a1-6)]Man(b1-4)GlcNAc(b1-4)GlcNAc
# Method in brief: as §1
# [5] = target: Gal(b1-4)GlcNAc(b1-3)Gal(b1-4)GlcNAc(b1-3)Gal(b1-4)GlcNAc(b1-2)Man(a1-3)[Gal(b1-4)GlcNAc(b1-3)Gal(b1-4)GlcNAc(b1-3)Gal(b1-4)GlcNAc(b1-2)Man(a1-6)]Man(b1-4)GlcNAc(b1-4)[Fuc(a1-6)]GlcNAc
# Method in brief: as §1
# [6] = target: Gal(b1-4)GlcNAc(b1-3)Gal(b1-4)GlcNAc(b1-3)Gal(b1-4)GlcNAc(b1-2)[Gal(b1-4)GlcNAc(b1-3)Gal(b1-4)GlcNAc(b1-3)Gal(b1-4)GlcNAc(b1-6)]Man(a1-6)[Gal(b1-4)GlcNAc(b1-3)Gal(b1-4)GlcNAc(b1-3)Gal(b1-4)GlcNAc(b1-2)Man(a1-3)]Man(b1-4)GlcNAc(b1-4)[Fuc(a1-6)]GlcNAc
# Method in brief: as §1
# [7] = target: Gal(b1-4)GlcNAc(b1-3)Gal(b1-4)GlcNAc(b1-3)Gal(b1-4)GlcNAc(b1-3)Gal(b1-4)GlcNAc(b1-2)Man(a1-3)[Gal(b1-4)GlcNAc(b1-3)Gal(b1-4)GlcNAc(b1-3)Gal(b1-4)GlcNAc(b1-3)Gal(b1-4)GlcNAc(b1-2)Man(a1-6)]Man(b1-4)GlcNAc(b1-4)GlcNAc
# Method in brief: as §1
# [8] = target: Gal(b1-4)GlcNAc(b1-3)Gal(b1-4)GlcNAc(b1-3)Gal(b1-4)GlcNAc(b1-3)Gal(b1-4)GlcNAc(b1-2)Man(a1-3)[Gal(b1-4)GlcNAc(b1-3)Gal(b1-4)GlcNAc(b1-3)Gal(b1-4)GlcNAc(b1-3)Gal(b1-4)GlcNAc(b1-2)Man(a1-6)]Man(b1-4)GlcNAc(b1-4)[Fuc(a1-6)]GlcNAc
# Method in brief: as §1
# [9] = target: Gal(b1-4)GlcNAc(b1-3)Gal(b1-4)GlcNAc(b1-3)Gal(b1-4)GlcNAc(b1-3)Gal(b1-4)GlcNAc(b1-2)[Gal(b1-4)GlcNAc(b1-3)Gal(b1-4)GlcNAc(b1-3)Gal(b1-4)GlcNAc(b1-3)Gal(b1-4)GlcNAc(b1-6)]Man(a1-6)[Gal(b1-4)GlcNAc(b1-3)Gal(b1-4)GlcNAc(b1-3)Gal(b1-4)GlcNAc(b1-3)Gal(b1-4)GlcNAc(b1-2)Man(a1-3)]Man(b1-4)GlcNAc(b1-4)[Fuc(a1-6)]GlcNAc
# Method in brief: as §1
# [10] = target: Gal(b1-4)GlcNAc(b1-3)Gal(b1-4)GlcNAc(b1-3)Gal(b1-4)GlcNAc(b1-3)Gal(b1-4)GlcNAc(b1-3)Gal(b1-4)GlcNAc(b1-2)Man(a1-3)[Gal(b1-4)GlcNAc(b1-3)Gal(b1-4)GlcNAc(b1-3)Gal(b1-4)GlcNAc(b1-3)Gal(b1-4)GlcNAc(b1-3)Gal(b1-4)GlcNAc(b1-2)Man(a1-6)]Man(b1-4)GlcNAc(b1-4)GlcNAc
# Method in brief: as §1
# [11] = target: Gal(b1-4)GlcNAc(b1-3)Gal(b1-4)GlcNAc(b1-3)Gal(b1-4)GlcNAc(b1-3)Gal(b1-4)GlcNAc(b1-3)Gal(b1-4)GlcNAc(b1-2)Man(a1-3)[Gal(b1-4)GlcNAc(b1-3)Gal(b1-4)GlcNAc(b1-3)Gal(b1-4)GlcNAc(b1-3)Gal(b1-4)GlcNAc(b1-3)Gal(b1-4)GlcNAc(b1-2)Man(a1-6)]Man(b1-4)GlcNAc(b1-4)[Fuc(a1-6)]GlcNAc
# Method in brief: as §1
# [12] = target: Gal(b1-4)GlcNAc(b1-3)Gal(b1-4)GlcNAc(b1-3)Gal(b1-4)GlcNAc(b1-3)Gal(b1-4)GlcNAc(b1-3)Gal(b1-4)GlcNAc(b1-2)[Gal(b1-4)GlcNAc(b1-3)Gal(b1-4)GlcNAc(b1-3)Gal(b1-4)GlcNAc(b1-3)Gal(b1-4)GlcNAc(b1-3)Gal(b1-4)GlcNAc(b1-6)]Man(a1-6)[Gal(b1-4)GlcNAc(b1-3)Gal(b1-4)GlcNAc(b1-3)Gal(b1-4)GlcNAc(b1-3)Gal(b1-4)GlcNAc(b1-3)Gal(b1-4)GlcNAc(b1-2)Man(a1-3)]Man(b1-4)GlcNAc(b1-4)[Fuc(a1-6)]GlcNAc
# Method in brief: as §1
# [13] = target: Gal(b1-4)GlcNAc(b1-3)Gal(b1-4)GlcNAc(b1-3)Gal(b1-4)GlcNAc(b1-3)Gal(b1-4)GlcNAc(b1-3)Gal(b1-4)GlcNAc(b1-3)Gal(b1-4)GlcNAc(b1-2)Man(a1-3)[Gal(b1-4)GlcNAc(b1-3)Gal(b1-4)GlcNAc(b1-3)Gal(b1-4)GlcNAc(b1-3)Gal(b1-4)GlcNAc(b1-3)Gal(b1-4)GlcNAc(b1-3)Gal(b1-4)GlcNAc(b1-2)Man(a1-6)]Man(b1-4)GlcNAc(b1-4)GlcNAc
# Method in brief: as §1
# [14] = target: Gal(b1-4)GlcNAc(b1-3)Gal(b1-4)GlcNAc(b1-3)GalNAc
# Method in brief: as §1
# [15] = target: Gal(b1-4)GlcNAc(b1-3)Gal(b1-4)GlcNAc(b1-3)[Gal(b1-4)GlcNAc(b1-3)Gal(b1-4)GlcNAc(b1-6)]GalNAc
# Method in brief: as §1
# [16] = target: Gal(b1-4)GlcNAc(b1-3)Gal(b1-4)GlcNAc(b1-6)[Gal(b1-3)]GalNAc
# Method in brief: as §1
# [17] = target: Gal(b1-4)GlcNAc(b1-3)Gal(b1-4)[Fuc(a1-3)]GlcNAc(b1-3)Gal(b1-4)[Fuc(a1-3)]GlcNAc
# Method in brief: as §1
# [18] = target: Gal(b1-4)GlcNAc(b1-3)GalNAc
# Method in brief: as §1
# [19] = target: Gal(b1-4)GlcNAc(b1-3)[Fuc(a1-3)GlcNAc(b1-6)]Gal(b1-4)Glc
# Method in brief: as §1
# [20] = target: Gal(b1-4)GlcNAc(b1-3)[Gal(b1-4)GlcNAc(b1-6)]Gal(b1-4)GlcNAc
# Method in brief: as §1
# [21] = target: Gal(b1-4)GlcNAc(b1-3)[GlcNAc(b1-6)]Gal(b1-4)GlcNAc
# Method in brief: as §1
# [22] = target: Gal(b1-4)GlcNAc(b1-6)Gal(b1-4)GlcNAc
# Method in brief: as §1
# [23] = target: Gal(b1-4)GlcNAc(b1-6)GalNAc
# Method in brief: as §1
# [24] = target: Gal(b1-4)GlcNAc(b1-6)[Gal(b1-3)]GalNAc
# Method in brief: as §1
# [25] = target: Gal(b1-4)GlcNAc(b1-6)[Gal(b1-4)GlcNAc(b1-3)]GalNAc
# Method in brief: as §1
# [26] = target: Gal(b1-4)GlcNAc6P
# Method in brief: as §1
# [27] = target: Gal(b1-6)Gal
# Method in brief: as §1
# [28] = target: Gal3S(b1-3)GalNAc
# Method in brief: as §1
# [29] = target: Gal3S(b1-3)GlcNAc
# Method in brief: as §1
# [30] = target: Gal3S(b1-3)[Fuc(a1-4)]GlcNAc
# Method in brief: as §1
binder,measurement,setting,value
BT3172pd (Bacteroides thetaiotaomicron) (protein) MLPLRAEHYYYKQISLKEGLPSNVRCILRDEQGFIWIGTKAGLGKFDGHQLKRYKHQANDPHSLLHNLIYQIAEDKQHNIWILTEKGIARYQQQSNNFTFPTDEEGNYITAYSFCLVPDGILFGGKDRIYKYSYKDSSLRLLQYFNANSFKITALSVWDSKTLLCCSRWTGLYLVDLQTGEHRRPPFDCGPEITSMITDSKNRIWIAPYSGGLRCYSRDGKLSASYTTHNSSLSNDIVLSLAEREEQLWIGTDGGGINILHPETGEISQLEYIPGRENYSLPANSILCLHNDYNNNVWAGSTCNGLISIREVSMKTYTDVVPGNDRGLSNGTVRSLYRQSPDSIWIGTDGGGINLFSPHTEKFTHYSSTWGDKVAFISGFTPGKLLISLFSKGVFVFNPATGEKQPFTIIDKETTTRLCNRGKSVNLYQNTPNTVLFLGDHIYQYHLKEKKFSTITEEEGKDIVGTLVPFDHQENLTYINDIKHIYELDDQTSRLKTVFECYTDTVISSVSHDEQGHFWIGSNFGLIHYDPVLKSRTLVPTNLFTEINMVLCDQKGKVWIGVDNMLFAYFIKEQKFVLFGESNGAIQNEYLPNARLVNEQGDAYIGGVKGMLRIDGQLLLNTSEMPELQLLDITINGESANHEWYNHPAKISVPWNSNISIRIMSREEDIFRQKIYRYQIEGLNNEYTESYNPELVIRSLLPGSYRIMASCTAKDGSWIPDQQVLELTVLPPWYRTHHHHHH,glycan array binding signal (z-score),[1],0.067
same,glycan array binding signal (z-score),[2],-0.402
same,glycan array binding signal (z-score),[3],-0.392
same,glycan array binding signal (z-score),[4],-0.375
same,glycan array binding signal (z-score),[5],-0.608
same,glycan array binding signal (z-score),[6],-0.545
same,glycan array binding signal (z-score),[7],1.06
same,glycan array binding signal (z-score),[8],-0.405
same,glycan array binding signal (z-score),[9],0.273
same,glycan array binding signal (z-score),[10],5.07
same,glycan array binding signal (z-score),[11],0.028
same,glycan array binding signal (z-score),[12],0.669
same,glycan array binding signal (z-score),[13],-0.144
same,glycan array binding signal (z-score),[14],-0.264
same,glycan array binding signal (z-score),[15],-0.344
same,glycan array binding signal (z-score),[16],-0.435
same,glycan array binding signal (z-score),[17],-0.565
same,glycan array binding signal (z-score),[18],0.072
same,glycan array binding signal (z-score),[19],-3.26
same,glycan array binding signal (z-score),[20],1.31
same,glycan array binding signal (z-score),[21],-0.406
same,glycan array binding signal (z-score),[22],-0.464
same,glycan array binding signal (z-score),[23],1.4
same,glycan array binding signal (z-score),[24],-1.05
same,glycan array binding signal (z-score),[25],-0.42
same,glycan array binding signal (z-score),[26],-0.486
same,glycan array binding signal (z-score),[27],-0.085
same,glycan array binding signal (z-score),[28],0.067
same,glycan array binding signal (z-score),[29],-1.38
same,glycan array binding signal (z-score),[30],-0.189
